Results as given in PubChem BioAssay AID1347165 (National Center for Advancing Translational Sciences (NCATS), 2019).
Where “and” joins values, the source holds several entries; their conditions need not be identical. Equal entries are not always repeated. Screen size: about 220,000 compounds; about 5,700 (2.6%) were called active. The inconclusive results got no clear call from the source; some entries with a clear call stand among them for comparison. Calls follow the shape of the dose curve; as a rule, active = well fitted inhibition curve with a large enough effect; inconclusive = small, poorly fitted or top-dose-only effect; inactive = no such curve, though single readings can be large or run the other way. A potency beside an inconclusive call is a rough fit, not a confirmed value.

Target: Lysine-specific demethylase 5B (Homo sapiens) (UniProt Q9UGL1)
Assay: Primary screen for KDM5B Histone Demethylases FDH-coupled qHTS; also: nearly all actives have a fitted effect of over 70% in size; as to activity change, negative = inhibition: 0% is about no effect
Settings: FDH-coupled NADH fluorescence (FDH is formaldehyde dehydrogenase); activity change, negative = inhibition: at 57.7 µM (top of the series) unless noted
Outline: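 qHTS format, multiple compound concentrations. Buffer 50 mM HEPES pH 7.5/0.01% Tween-20; 200 nM KDM5BΔAP final; 10 min compound preincubation; substrate-mix levels 12.5 µM peptide, 25 µM α-KG, 0.25 mM NAD⁺; 30 min RT; ΔRFU.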
Potency is read from the fitted curve at half-maximal effect; tags tell the direction and shape of the fitted curve.

Chain of UniProt Q9UGL1 (Q9UGL1 whole entry, looked up): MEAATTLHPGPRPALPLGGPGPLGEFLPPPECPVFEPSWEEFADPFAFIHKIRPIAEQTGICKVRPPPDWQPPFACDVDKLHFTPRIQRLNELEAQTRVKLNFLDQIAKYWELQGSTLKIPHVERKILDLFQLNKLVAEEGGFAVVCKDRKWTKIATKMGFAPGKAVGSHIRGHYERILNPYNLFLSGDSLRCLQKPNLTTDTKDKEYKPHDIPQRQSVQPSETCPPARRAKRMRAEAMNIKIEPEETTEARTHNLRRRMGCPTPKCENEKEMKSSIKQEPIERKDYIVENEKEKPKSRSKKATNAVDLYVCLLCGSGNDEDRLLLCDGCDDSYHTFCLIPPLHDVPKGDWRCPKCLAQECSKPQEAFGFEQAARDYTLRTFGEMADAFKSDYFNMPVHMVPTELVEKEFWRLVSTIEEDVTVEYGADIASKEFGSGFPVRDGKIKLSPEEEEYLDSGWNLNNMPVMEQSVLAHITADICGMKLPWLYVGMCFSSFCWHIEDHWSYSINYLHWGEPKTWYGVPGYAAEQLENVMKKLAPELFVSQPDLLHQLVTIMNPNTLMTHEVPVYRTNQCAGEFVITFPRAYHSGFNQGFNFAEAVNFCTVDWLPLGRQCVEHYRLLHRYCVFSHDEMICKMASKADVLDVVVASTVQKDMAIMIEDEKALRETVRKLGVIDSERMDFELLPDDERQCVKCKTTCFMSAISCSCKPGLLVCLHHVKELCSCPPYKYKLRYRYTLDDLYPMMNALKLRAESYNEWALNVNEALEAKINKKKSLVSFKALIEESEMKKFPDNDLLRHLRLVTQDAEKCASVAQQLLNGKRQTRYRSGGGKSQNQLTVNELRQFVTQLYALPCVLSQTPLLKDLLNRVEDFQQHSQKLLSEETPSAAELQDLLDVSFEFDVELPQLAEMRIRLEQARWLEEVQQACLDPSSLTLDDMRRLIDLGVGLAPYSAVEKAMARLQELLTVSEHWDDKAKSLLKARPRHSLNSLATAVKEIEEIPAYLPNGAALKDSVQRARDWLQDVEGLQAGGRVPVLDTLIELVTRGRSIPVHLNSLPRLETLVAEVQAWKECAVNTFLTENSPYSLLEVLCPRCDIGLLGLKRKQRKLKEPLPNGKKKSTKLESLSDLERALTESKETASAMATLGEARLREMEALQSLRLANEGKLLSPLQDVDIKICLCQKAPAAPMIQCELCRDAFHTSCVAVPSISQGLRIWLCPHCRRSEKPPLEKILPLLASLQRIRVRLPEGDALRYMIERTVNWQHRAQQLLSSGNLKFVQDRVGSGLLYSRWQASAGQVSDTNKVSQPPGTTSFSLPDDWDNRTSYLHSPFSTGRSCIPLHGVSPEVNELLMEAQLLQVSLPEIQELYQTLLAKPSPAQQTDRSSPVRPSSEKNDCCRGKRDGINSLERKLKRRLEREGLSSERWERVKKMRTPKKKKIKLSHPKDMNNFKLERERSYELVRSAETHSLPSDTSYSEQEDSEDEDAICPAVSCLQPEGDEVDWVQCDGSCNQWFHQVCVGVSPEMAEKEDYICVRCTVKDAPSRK

SMILES	activity change, negative = inhibition	Potency
COCc1nc(-c2ccc(OC3CCN(C(=O)Cc4c[nH]c5ccccc45)C3)cc2)no1 (centres undefined)	inactive: -17.4%	–
O=C(N[C@H]1C[C@@H]2C(=O)N[C@H]3CCN(C(=O)C4CCCC4)[C@@H]3C(=O)N2C1)c1ccc(F)c(Cl)c1	inactive: -0.373%	–
O=C(CC1N=C2c3ccccc3N=C(SCc3ccc(F)cc3)N2C1=O)NCc1ccc2c(c1)OCO2 (centres undefined)	–	inconclusive: 39.8 µM [inhibitor, single point]
O=c1[nH]c(C2CCCN(CC3CC3)C2)nn1-c1ccccc1 (centres undefined)	–	inconclusive: 25.1 µM [inhibitor, partial curve, poor fit]
O=C(COc1ccc(F)cc1F)Nc1cccnc1	–	inconclusive: 31.6 µM [inhibitor, single point]
O=C(CCc1cc(Cl)no1)N1CCc2nc3cc(-c4ccccc4)[nH]n3c(=O)c2C1	–	active: 7.94 µM
COc1ccc(C2Cn3nnc(C(=O)N4CCN(C(=O)Cc5cccc(F)c5)CC4)c3CO2)cc1 (centres undefined)	–	inconclusive: 20 µM [inhibitor, partial curve, poor fit]
CNC(=O)Cn1c(C)cc(=O)c2cccc(OC)c21	–	inconclusive: 28.2 µM [inhibitor, partial curve, poor fit]
O=C(/C=C/C(=O)OCCCc1ccccc1)OCCCc1ccccc1	inactive: 8.91%	–
COc1ccc(OC)c(CNC(=O)c2nnn3c2COC(c2ccc(F)cc2)C3)c1 (centres undefined)	inactive: -5.06%	–
COc1ccc(C2NN=C(c3c[nH]c4ccccc34)C2O)cc1 (centres undefined)	–	inconclusive: 20 µM [inhibitor, partial curve, poor fit]
O=C(/C=C/c1ccc(F)cc1)c1cccc(O)c1	–	inconclusive: 39.8 µM [inhibitor, single point]
Cc1ccc(C(=O)C2=C(O)C(=O)N(Cc3ccco3)C2c2cccc(Cl)c2)o1 (centres undefined)	–	inconclusive: 25.1 µM [inhibitor, single point]
COc1ccc(-c2nc(C3CC3)nc3c2CCN(Cc2cccn2C)CC3)cc1	–	active: 50.1 µM
c1cc(-c2nc3ccncc3[nH]2)ccn1	–	active: 126 µM and active: 31.6 µM
COc1ccc(S(=O)(=O)Nc2ccc3c(c2)N(C(=O)c2cccnc2)CC3)c(OC)c1	inactive: 6.91%	–
COc1ccccc1CN1CCc2nc(C(=O)N3CCOCC3)oc2CC1	inactive: -26.4% [at 86.2 µM]	–
CNc1c(NS(=O)(=O)c2ccc(Cl)s2)c(=O)oc2ccccc12	–	inconclusive: 39.8 µM [inhibitor, single point]
O=C(O)c1ccc(-c2nc3ccncc3[nH]2)cc1	–	inconclusive: 112 µM [inhibitor, partial curve, poor fit] and inconclusive: 7.08 µM [inhibitor, full curve, poor fit]
CCOc1ccc(CN2CCC(N3CCOCC3)CC2)cc1	–	inconclusive: 39.8 µM [inhibitor, partial curve, poor fit]
Cc1cccc(Cn2c(=O)n3nc(-c4ccccc4)nc3c3ccccc32)c1	–	inconclusive: 22.4 µM [inhibitor, partial curve, poor fit]
Cc1noc(C)c1C(=O)N1CCC2(CC1)c1[nH]c3ccccc3c1CCN2C	–	inconclusive: 35.5 µM [inhibitor, partial curve, poor fit]

SMILES	activity change, negative = inhibition	Potency
CC1(CCCCc2ccccc2)COc2ccc(C(=O)NCc3cccnc3)cc2N1 (centres undefined)	–	active: 28.2 µM
CC1(C)CC(NC(=S)Nc2ccc(SC(F)F)cc2)CC(C)(C)N1	inactive: 5.82%	–
CSc1nc(Nc2ccccc2F)c(C#N)c(-c2ccccc2)n1	–	inconclusive: 39.8 µM [inhibitor, single point]
COc1ccccc1CN1C(=O)O[C@@H]2CN(c3nc(C)cc(C)n3)C[C@@H]21	–	inconclusive: 5.01 µM [inhibitor, partial curve, poor fit]
COc1ccc(C(=O)N2CCc3onc(-c4ccc(C(F)(F)F)cc4)c3C2)o1	–	active: 10 µM
COc1ccc(NC(=O)c2sc3nc4c(cc3c2N)CN(Cc2ccccc2)CC4)c(OC)c1	–	inconclusive: 15.8 µM [inhibitor, partial curve, poor fit]
N#Cc1ccc(CCC(=O)O)cc1	inactive: 9.75%	–
CC(C(=O)NC1CCN(Cc2ccccc2)CC1)N1Cc2ccccc2C1=O (centres undefined)	–	inconclusive: 22.4 µM [inhibitor, partial curve, poor fit]
CN(C)C[C@@H]1CN(c2ccccn2)C[C@H]1NC(=O)c1ccoc1	–	active: 28.2 µM
Cc1ccc(Nc2nc(NCc3ccco3)c3ccccc3n2)cc1	–	inconclusive: 31.6 µM [inhibitor, partial curve, poor fit]
COc1ccc(-c2cc(C(=O)NCC(=O)NC(C)C)c3ccccc3n2)cc1	–	inconclusive: 28.2 µM [inhibitor, partial curve, poor fit]
CS(=O)(=O)N1CCC(OC2CCN(C(=O)Nc3ccc(Cl)cc3F)CC2)CC1	inactive: 20.6%	–
OCc1nc2ccccc2n1CC(O)COc1c(Cl)cccc1Cl (centres undefined)	inactive: 17.3%	–
COc1ccc(-c2c(C#N)c(SCC(=O)Nc3ccccc3C)nc(C)c2C(=O)Nc2ccc(Cl)cc2)cc1	–	inconclusive: 14.1 µM [inhibitor, partial curve, poor fit]
Cc1nc(N2CCN(CCO)CC2)c(C#N)c2c1CCCC2	–	inconclusive: 25.1 µM [inhibitor, partial curve, poor fit]
Cc1cc(O)c(C(c2cccc(F)c2)N2CCN(c3ccccc3)CC2)c(=O)n1Cc1ccco1 (centres undefined)	–	inconclusive: 44.7 µM [inhibitor, single point]
c1ccc(Nc2ccc(-n3cccc3)cc2)cc1	–	inconclusive: 39.8 µM [inhibitor, single point]
Nc1nccnc1C(=O)NCC1(c2ccccc2)CC1	–	inconclusive: 28.2 µM [inhibitor, partial curve, poor fit]
CN(C)C[C@@H]1CN(c2ccncn2)C[C@H]1NC(=O)c1ccc(Cl)s1	inactive: -21.3%	–
Cc1ccc(C(=O)O)cc1-c1ccc(C=O)o1	–	inconclusive: 20 µM [inhibitor, partial curve, poor fit]
CCc1ccccc1NC(=O)c1ccccc1SCc1cccs1	inactive: 17.2%	–
COc1ccc(Cl)cc1NC(=O)c1cc2c(=O)n3ccccc3nc2s1	–	inconclusive: 31.6 µM [inhibitor, partial curve, poor fit]

SMILES	activity change, negative = inhibition	Potency
Cc1ccc2c(c1)-c1nc3ccccc3cc1/C2=C\c1ccncc1	–	inconclusive: 39.8 µM [inhibitor, single point]
CCOC(=O)COc1ccc(C2C(C(=O)OC)=C(C)NC3=C2C(=O)c2ccccc23)cc1Cl (centres undefined)	–	inconclusive: 15.8 µM [inhibitor, partial curve, poor fit]
COc1cccc(CNC(=O)c2cnc3sc(N4CCCC4)nn3c2=O)c1OC	–	inconclusive: 3.98 µM [inhibitor, full curve, poor fit]
COCCOC1CCOC2(CCN(C(=O)c3sccc3C)CC2)C1 (centres undefined)	inactive: -7.42%	–
Cc1ncsc1C(=O)N1CCNc2cnc(Nc3cccc(C(F)(F)F)c3)nc2C1	–	inconclusive: 35.5 µM [inhibitor, single point]
CCOC(=O)CC(NC(=O)CCc1c(C)nc2c(-c3ccccc3)c(C)nn2c1C)c1ccc(OC(C)C)cc1 (centres undefined)	–	inconclusive: 15.8 µM [inhibitor, partial curve, poor fit]
CCCCn1c(C)c(C)c2c1ncn1nc(-c3cccs3)nc21	–	inconclusive: 22.4 µM [inhibitor, partial curve, poor fit]
CC1=C[C@@H](CNC(=O)c2ccccn2)[C@H](C(C)C)C[C@H]1CC(=O)N1CCCC1	inactive: 7.51% [at 86.2 µM]	–
CC(C)(C)c1ccc(-c2nc(C#N)c(NCCCn3ccnc3)o2)cc1	–	inconclusive: 20 µM [inhibitor, partial curve, poor fit] and inconclusive: 11.2 µM [inhibitor, partial curve, poor fit]
CC1(C)Cc2c(sc(NC(=O)c3ccc(C(=O)c4ccccc4)cc3)c2C(N)=O)C(C)(C)N1	–	inconclusive: 14.1 µM [inhibitor, partial curve, poor fit]
COc1ccc(C(=O)N[C@@H]2CN(c3ncccn3)C[C@H]2CN(C)C)c(OC)n1	–	active: 25.1 µM
COCCNC(=O)[C@@H]1Cc2cn(Cc3nccn3C)c3cccc(c23)[C@H](CC(C)C)N1	–	inconclusive: 39.8 µM [inhibitor, partial curve, poor fit]
Cc1cc(C(=O)N2CCC(Oc3ccccc3-c3nc(C4CC4)no3)C2)n[nH]1 (centres undefined)	–	inconclusive: 22.4 µM [inhibitor, single point]
CC(C)C(C)NC(=O)c1ccc(I)cc1 (centres undefined)	inactive: 6.26%	–
COc1ccc2cc(C(=O)N3CCN(c4ccccc4OC)CC3)[nH]c2c1	–	inconclusive: 15.8 µM [inhibitor, single point]
COc1ccc(-c2nc(C3CC3)nc3c2CCN(Cc2ccnn2C)CC3)cc1	–	inconclusive: 50.1 µM [inhibitor, partial curve]
CCOCC(=O)N1CCCn2cc(-c3ccccc3)nc21	–	inconclusive: 15.8 µM [inhibitor, partial curve, poor fit]
CN(C)C[C@@H]1CN(C)C[C@H]1N	–	inconclusive: 22.4 µM [inhibitor, single point]
COCCN1CCOC[C@H]2CCN(C(=O)c3cccc4[nH]ccc34)C[C@H]21	–	inconclusive: 39.8 µM [inhibitor, partial curve, poor fit]
COc1ccc(C2NC(=O)N(C)C3=C2C(=O)N(c2ccc(Br)cc2)C3)cc1 (centres undefined)	–	inconclusive: 25.1 µM [inhibitor, single point]
